Data taken from the RNAGym collection of RNA variant scans (doi:10.7554/elife.90254).
The source gives no read counts; variants with many changes may rest on few reads.

B1: LINE1-full (parent)
chain: UACGUAGGUGGUUUUCCCCUGAUAGUGCUAAGGGGGCCUGGAAGUUUGGACUGGGCAGAGCUCAACACAGCGUGGCAAAGUGGCUGUGGCUAGACUGCCUCUCUGGAUUCCUCGUCACUCAGCAGGGCAUCUCUGAGAGAAAUGCC

Variants of: B1
Test: self-cleavage, relative activity (ratio to wild type); higher = more cleavage; in vitro, sequencing; the parent is a self-cleaving ribozyme

Variant | self-cleavage
A24G A77G A140G | 1.08
A30G U47G G53A A79G U134G | 0.81
U52A A65G A121G | 0
U15C A22G A121G A141G A142U | 1.84
A22G A65C A124U | 0
U13A A31C A77C A92G | 0.19
A2G A42G A77U A79G | 1.07
U12A A78G U104A U115A A124U | 1.27
A59G G60A A117C | 0
U14C U26C A138G | 1.05
U20A G34A A77G | 2.07
G75A U104C U108C | 1.52
G34A A42G U85A C95U A142G | 0.09
U87C G105U A121U | 0.17
A64G A77G U108C | 0.59
A42U U81A A117G | 1.97
A57C C61U A78G A79G A140U | 0.13
U29C G83A U104C | 1.82
U73C U102C G114A A136G | 2.58
U15A A22G U26G C68U | 0.44
U13C U96C U108C U112C | 0.54
A2G U26G G34A U39A U45C A94U U102A | 0.23
U29C U45C A94G U143C | 1.27
U13C U85C U104C | 0.37

Variant | self-cleavage
U26A A92G C128U | 0.13
U39A U115G U130C | 2.22
G83A U108C A117G A140U | 1.59
G32A G34A A67G U104A A141G | 0.31
A22G A79G C146A | 0.82
U45A A94G U130C A142G | 0
U5A A6G A43G U91A A136G | 0.79
U13C A67G A94G | 0
A69C U104A U132G | 0.06
U26C A65U A67U U73G A78G | 0.08
U46C G70U A79G U100C A129G | 0.09
G75A A107U A124U C128U | 0.92
U20C A65G C71U | 0.03
U13A A65U G89U | 0.02
U15C A50G G93U U108C A140G A141G | 0
A79G U81C G83U A138C | 0.68
A22U U39A A78G A79U U102A | 1.04
U15C A129G A141G | 1.79
A69G G70A U102A | 0.04
U20C A78U U81A | 1.5
A65G A77U A94G G122A | 0.08
U39A U62C A78G U109C | 0.08
G41A G82A A140G | 1.41
U26C U85C U108C A117U | 0

Variant | self-cleavage
U5C U85A A136G A141G | 0.12
A22G U87A G114A | 0.02
A2G U13C U20A | 0
U14C A57U A79G U87A | 0.19
U14C A24G U26C C66A | 0.45
A31U G58U U91C A94G | 0.09
U5C A59G C133U | 0.38
U1C A77C U108C A124G | 0.44
U20C A64C A79U | 0.49
U14C G58A U102C U115C | 0.14
U15C A64G A136G | 0.41
U15C C61A G80U A129G | 0.02
U73C U87C A142G | 0.45
U20A A43G A69G | 0.67
U15C U47G U87C C95U | 0
U102A C111A A142G | 1.32
U12G U52A C66A | 0
U15A G34U U47C A138U | 0.88
A64G A78U A129G | 0.18
U12C U20A U29A A50G U62A G97A A136G | 0
C3U A30G C37G U52A A65G U102C | 0.8
U14C U45C G48A A79G A142G | 1.08
C19A C98U G125A C131U | 0.67
U12C U20C G40A | 1.31

Variant | self-cleavage
U14C A42G U115C | 1.18
U1A A31G A42U U108C U134A | 0.77
A31U U62C U96A | 0.04
U15C A65G A117U | 0
U1C A2G U73C G86U U115A | 0.2
U13C A65G A138G | 0.07
U23C U96A C111A A138G | 0.11
U52G A77G U134C | 2.12
U15C U46C A78G | 1.65
A6U A77G G88A A124G A140G A141G | 0.1
G34U A67G G74A U81C U87A | 0.11
A69G A129G A142G | 0.41
U39C A79G U115C U143C | 0.71
U13C A22G A42U U109C A117U U119A | 1.09
A43G C63U U100C | 0.69
A65G A69G A129G | 0
A57C A78G A79G U143A | 0
A31U U81C U143C | 1.09
A24G C38U U45C U47C A77G | 1.84
A42U U81A U115C A121U | 0.69
A64G C101A U132C | 0.28
A57G U108C A141G | 1.93
U5C U13C U26G | 0.85
U15C U20C A124U | 1.15

Variant | self-cleavage
A64U U119C U132C | 0.16
A42U A69G U102A | 0.19
U13C A77G A129C | 2.38
U39A A59G A142G | 0.11
A6U G36A G125U C131U G144A | 1.01
A24G A42U U46A C90U | 0.06
C3U U45A A67U G88U U104A | 0.05
A31G U91C A94U | 0.27
C71U U81A A142G | 0.8
U62C U104C A129C A140G | 0
U13C A42G U52C | 1.4
A43G U119C U134A | 1.51
A2G G36A A138U | 1.05
U46A U119A U130C A142G | 1.83
G27A U46A G54A U91C U108C U119C C128U | 0.23
U47A A67G A69G | 0
A50G U104A U109A | 0.66
A43G U47A U85G | 0.2
G40A A50G C71A A94G | 0.07
U12C C16U G135A | 0.64
G4A G72A U81A | 1.82
A2G A24G A31G U45G A142G | 0
U13C A42G A136G | 1.54
C37G A79G A124G | 1.17

Variant | self-cleavage
U47C U52C G127A | 1.64
A6G A42G A67G A79G | 0.61
U23A A64G G89A U100C G139A | 0.16
A59U A79G U143A | 0.77
U26A A57G U62C U96A | 0
U9A A64G G72A A117G U132A | 0.16
U102C A117U A124G | 1.26
G34U U87A A129G | 0.12
C3U U23C U73A | 1.15
U9C A67G U100C | 1.75
U13C U132C U143C G144A | 1.48
A43G U104C U109C A121U U134A | 1.15
U15C A43G U62C | 0.2
U13A U52C U115C A138G | 1.6
G35A U62C U109A C111A A138G | 0.02
A2G A31G U102C | 0.29
U39C A79G C101A A107G | 2.7
U39C G40U A129G A136G | 1.37
A43G U85C U115C | 0
G34U G36A U104A A136G A142G | 1.44
U14C C68U A79G U96A A141G | 0.05
U1G U12C U20A A42G U102C | 0
U15C A30C U45C | 2.23
U45C A77G A94U U104C | 0.34

Variant | self-cleavage
A6G A42G A67U U73C | 0.54
U62C U81A U130C | 0.07
A22U A50U A78G A94G G97U U119C | 0.08
G10U A64G U119C | 0.17
U102A U108A U115A | 1.63
U45A U52C A79G A140G | 0.75
U14C G36A A129G U143C | 1.29
U29C U47A A92G U112C | 0
U91C A140G A142G U143A | 0.43
U12C U20C G32A | 1.23
A2G C90U A117G A136G | 0.05
U12C G21A U45C | 0.29
U12G G33U C71G | 0.36
U12C A22U U39C U119C A141G | 0
G34U A64C U115C U134C | 0.34
A42G U119C A124G | 1.77
A78G G80A U104A A141G | 2.77
U13C U100C U143C | 1.51
U26C A57U A138G | 0
G8A A31U U62A A67G A136G | 0.32
A67G U91C U134A | 0.14
A22U A24G U109A | 1.51
U14C C19U U73C | 0.87
